# According to the supplement of paper PMC3334620:
# The full ranking holds about 33,000 sequences; the median of “E-score (-0.5 to 0.5)” is about -0.035, and the highest 2% start at about 0.35. This is one part of the list.
# Target: T1, Pdr3 (UniProt P33200)
# T1 sequence: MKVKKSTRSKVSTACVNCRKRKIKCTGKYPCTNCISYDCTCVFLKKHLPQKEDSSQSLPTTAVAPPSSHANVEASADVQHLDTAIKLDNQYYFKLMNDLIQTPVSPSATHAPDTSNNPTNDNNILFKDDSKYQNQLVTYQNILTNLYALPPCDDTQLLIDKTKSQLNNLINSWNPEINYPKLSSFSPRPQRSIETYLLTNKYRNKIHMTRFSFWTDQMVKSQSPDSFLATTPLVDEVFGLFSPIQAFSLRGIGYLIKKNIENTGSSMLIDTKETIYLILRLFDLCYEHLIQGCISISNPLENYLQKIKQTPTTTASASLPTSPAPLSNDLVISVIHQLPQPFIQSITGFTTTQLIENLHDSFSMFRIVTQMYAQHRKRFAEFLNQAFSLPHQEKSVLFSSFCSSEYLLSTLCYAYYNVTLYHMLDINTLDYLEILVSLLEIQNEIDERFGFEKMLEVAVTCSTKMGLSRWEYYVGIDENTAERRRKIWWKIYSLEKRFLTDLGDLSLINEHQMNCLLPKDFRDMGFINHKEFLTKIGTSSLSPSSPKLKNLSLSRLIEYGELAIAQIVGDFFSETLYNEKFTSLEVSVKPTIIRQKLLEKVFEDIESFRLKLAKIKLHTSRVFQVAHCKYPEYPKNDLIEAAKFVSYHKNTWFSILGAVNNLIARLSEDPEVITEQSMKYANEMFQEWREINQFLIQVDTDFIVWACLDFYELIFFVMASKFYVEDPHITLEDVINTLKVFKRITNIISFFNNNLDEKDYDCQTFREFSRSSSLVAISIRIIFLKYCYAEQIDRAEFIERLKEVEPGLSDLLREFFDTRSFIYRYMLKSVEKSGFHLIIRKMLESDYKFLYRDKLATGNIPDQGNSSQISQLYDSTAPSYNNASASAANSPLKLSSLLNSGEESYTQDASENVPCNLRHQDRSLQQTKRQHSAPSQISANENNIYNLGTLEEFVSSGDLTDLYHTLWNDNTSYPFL
# Test: PBM E-score (8-mer binding enrichment) (E-score (-0.5 to 0.5)); higher = stronger / more preferred TF binding; most listed sequences are background and not binding sites
# Conditions: protein concentration: 200 nM; construct: GST-full length
# Experimental: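 Universal 'all 10-mer' protein binding microarrays (Agilent AMADID 015681) probed with GST-tagged S. cerevisiae TFs (full-length or DBD) made by in vitro transcription/translation (PURExpress), about 100-200 nM. Bound TF was detected with fluorescent anti-GST. Each ungapped 8-mer (which stands for itself and its reverse complement) is scored by the PBM enrichment score (E-score), a modified Wilcoxon-Mann-Whitney statistic from -0.5 to +0.5, computed with the Universal PBM Analysis Suite. Scale: above 0.35 generally sequence-specific binding.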
row,Sequence,PBM E-score
1,CAACGGTC,0.0475
2,AGAGGCGA,-0.293
3,CACCTACC,-0.163
4,CAGAAAAA,-0.142
5,AGCGGGGA,0.0517
6,CGGGTTTA,0.327
7,ACACCGCT,-0.166
8,CATTCTAG,-0.32
9,ATCTCGAG,0.0184
10,GGGCTAAA,0.0946
11,GCTAGGAA,-0.0867
12,CCTACGCG,0.0621
13,AGTGCTCG,-0.148
14,CCAACAGA,-0.199
15,GACCAGTA,0.0204
16,CCAACTTC,-0.128
17,ACCCCCAG,-0.227
18,GTGAATTA,-0.0214
19,GCTTCCGA,0.405
20,CTCTGTAA,-0.257
21,ATATGGTG,0.0907
22,CGTTGAAC,-0.0169
23,GGGTGGTA,0.127
24,AGCGATAA,-0.0442
25,ACAGGCCT,-0.13

row,Sequence,PBM E-score
1,CGTAACAC,-0.0629
2,CTTAGAGC,-0.129
3,AGCTTCCA,0.0336
4,ACAGAGGT,-0.166
5,CGTGCTAC,-0.0992
6,ACCTGGTC,0.0867
7,CAAGTAAA,-0.0515
8,CGTTGTTC,0.132
9,CTGGTAGA,-0.0687
10,CCACACGC,0.0821
11,GACCACGC,-0.0943
12,TCTCGCCA,-0.102
13,ATCTGCCG,0.306
14,CGGGGTAA,0.267
15,CCATCCAA,-0.105
16,CATTCGGA,0.356
17,ACAATTTC,-0.157
18,AACTAACA,0.0413
19,AATATCCG,0.323
20,GTCAGTAA,-0.145
21,ACCGGAAG,0.42
22,AGAGCTAT,-0.194
23,CCTACTGC,-0.132
24,CATCCCTA,-0.0904
25,GTCTACAC,-0.0206

row,Sequence,PBM E-score
1,CCCTATCA,-0.143
2,ACAATTGT,0.0284
3,ACCTATGA,-0.24
4,AGTAACCA,-0.0464
5,AACCACTC,0.0319
6,CGAGCGAC,-0.113
7,AAGCATCT,-0.243
8,AACATCCC,0.292
9,GGGACGCA,-0.0927
10,AAGTAGGG,-0.0838
11,CAACCTAC,-0.0442
12,AACTTTTC,-0.124
13,AGGGCCGG,0.212
14,AACTGGGC,-0.102
15,CGCTCTAG,-0.177
16,CAGGACGA,-0.11
17,AGGTTCCC,-0.0087
18,AAACTGCA,-0.0386
19,CAGTATTA,0.0864
20,ACGAGAAT,-0.0143
21,AATTGACC,0.0106
22,CGCACTAG,-0.00713
23,CTATCCCC,-0.0941
24,GCAAGTGA,-0.199
25,TAGGACAA,-0.185

row,Sequence,PBM E-score
1,AGGTTACA,-0.166
2,GCTGTTCA,-0.199
3,ACAGAATA,0.0104
4,GAATACAC,-0.0519
5,GTGCAGCA,-0.0699
6,CATGGGCA,-0.0731
7,AATTCACG,-0.0755
8,CCCGTGGC,0.233
9,GCCACCTA,-0.158
10,AATCCAAA,0.0228
11,ACATTACC,0.0491
12,ACGTAGCC,-0.265
13,ATTTAAGA,-0.224
14,GGGCTTAC,-0.116
15,AAGGTGTG,0.00561
16,CCCCTCAA,-0.0149
17,CTACGTCC,-0.141
18,GTACCCCA,-0.0176
19,ACAGGGCT,-0.316
20,GTCTATCA,-0.161
21,CCGGGGAC,0.234
22,ACAGGAAA,0.142
23,ACCTCGAA,-0.0326
24,ACATGATA,0.0144
25,ATTAGCCA,-0.153

row,Sequence,PBM E-score
1,CCAGAGTC,-0.0528
2,GTAACGCA,0.0163
3,ATTCAGTA,0.0302
4,ACACGGGT,0.0643
5,ATGTCTTA,-0.187
6,CCAGCTAA,-0.313
7,CGAACGGA,0.407
8,CACATGAC,-0.204
9,AATAATGT,0.0445
10,AAAAGCTG,-0.207
11,ACAAACAT,-0.0528
12,TCCCAAGA,0.00106
13,GTAATGCA,-0.142
14,GACCGGCA,0.0622
15,GTGATGAA,-0.106
16,ACCTACAC,-0.32
17,GACATGGC,0.0156
18,CATACCCG,0.188
19,GGAATCAA,0.286
20,ACACGCCC,0.0693
21,CCAAGTGC,-0.00795
22,GACCCGGA,0.369
23,ATAGTGAA,-0.197
24,CGGACAAC,0.33
25,CCCGAGCA,0.0918

row,Sequence,PBM E-score
1,GAGTACAA,0.0562
2,CGGTTGAG,0.169
3,GAGTCGCC,-0.0489
4,ACTATTCC,0.327
5,ATGTGCGG,0.199
6,GGTACTGA,-0.0986
7,CGATTTAG,0.174
8,GGCACTAC,-0.186
9,AAGTCGGT,-0.0517
10,GCGCTAAA,-0.0228
11,GTTCGTTA,-0.0499
12,AGAACACG,-0.00391
13,AACGCGTA,-0.0973
14,GGCCGAGA,0.31
15,TGCTGGAA,-0.0333
16,ACCTTGCC,-0.0637
17,ACGCCAAC,-0.121
18,GGCGTTGA,-0.128
19,CAACACAG,-0.176
20,GTTACTGA,0.153
21,CATGCAGA,-0.0568
22,AATCGTAT,-0.153
23,CTAGGCTA,-0.236
24,AGCGGCAC,0.118
25,AGGTGTAG,-0.136

row,Sequence,PBM E-score
1,CGCGTTTC,-0.0712
2,AGCGGTGC,-0.166
3,GATATTAC,0.0213
4,GTCTGGGA,-0.301
5,AAATAGAA,-0.118
6,CCCTTGGC,-0.22
7,AAATATTC,0.0659
8,GGGTAACC,-0.0796
9,CGAGTAAA,0.103
10,GTAGCATA,-0.118
11,TTAAAAAA,-0.0789
12,ACCCCGTG,0.181
13,CGTAATAC,-0.0503
14,CCGCTGGA,0.162
15,ATTATTCG,0.104
16,CGAGCGAG,0.23
17,GTAAGGAA,-0.141
18,GTCAAACA,-0.223
19,CCCATGGC,0.0769
20,AATTTGCA,0.0143
21,GCGTAACA,-0.0848
22,AGTTTGTG,-0.0043
